# According to PubChem BioAssay (Tox21):
# Values joined by “and” are separate entries in the source; they are usually repeats but may differ in a detail not shown here. Identical values can stand only once. The shares of active, inactive and inconclusive entries below differ from those in the screen. For part of these data: Where the call is inconclusive, the potency comes from a doubtful curve fit. Active and inactive are the calls of the source. Unless noted, calls come from the whole dose curve; as a rule, active = well fitted curve in the direction sought with a large enough effect in the repeat runs; inconclusive = weak or mixed curves; inactive = no such curve, though single readings can be large; an effect the other way counts as inactive or inconclusive.
# Key:
# [1] = qHTS assay for small molecule activators of the heat shock response signaling pathway - cell viability counter screen (AID 743209); settings: HSE-bla HeLa viability, CellTiter-Glo luminescence, 5 h; activity change, negative = cytotoxicity: at 62.6 µM (top of the series) unless noted; note: nearly all actives have a fitted effect of over 50% in size
# Summary of the method: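 Same-well multiplex: after 2.5 h room-temperature incubation with LiveBLAzer B/G substrate and fluorescence reading, CellTiter-Glo reagent was added to HSE-bla HeLa cells that had received compound for 5 h at 37 C; luminescence read after 30 min.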
# [2] = qHTS assay to identify small molecule agonists of the peroxisome proliferator-activated receptor delta (PPARd) signaling pathway - cell viability counter screen (AID 743211); settings: PPARd-bla HEK293H viability, CellTiter-Glo luminescence, 17 h; activity change, negative = cytotoxicity: at 62.6 µM (top of the series) unless noted; note: nearly all actives have a fitted effect of over 55% in size; note: potency is the fitted concentration of half-maximal effect
# Summary of the method: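 qHTS cell viability: PPARd-bla HEK293H; 17 h cpd, 37C; CellTiter-Glo, luminescence at 30 min RT.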
# [3] = qHTS assay to identify small molecule agonists of the farnesoid-X-receptor (FXR) signaling pathway - cell viability counter screen (AID 743218); settings: FXR-bla HEK293T viability, CellTiter-Glo luminescence, 16 h; viability change, negative = cytotoxic: at 62.6 µM (top of the series) unless noted; note: nearly all actives have a fitted effect of over 45% in size; note: potency is the fitted concentration of half-maximal effect
# Summary of the method: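 Readout: CellTiter-Glo luminescence, 30 min RT, multiplexed after the FXR-bla FRET reading. HEK 293T FXR-UAS-bla cells received compound 5 h post-plating and were incubated 16 h at 37 C.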
# [4] = biological target: Vitamin D3 receptor (Homo sapiens) (UniProt P11473); assay: qHTS assay to identify small molecule antagonists of the vitamin D receptor (VDR) signaling pathway (AID 743223; active = well fitted inhibition curve with a large enough effect in the signal ratio in the repeat runs, not every such curve was filed as active; inconclusive = weak or mixed curves, or effect the other way; inactive = no such curve, though single readings can be large or run the other way; the % refers to the signal ratio; note: potency is the fitted concentration of half-maximal effect); settings: VDR-UAS-bla HEK293T, beta-lactamase FRET ratio, 16 h; activity change, negative = inhibition: at 61 µM (top of the series) unless noted
# Summary of the method: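 Reporter line VDR-bla; stimulus 1alpha,25-(OH)2 vitamin D3, 3 nM final; compound co-addition, 16 h 37C/5% CO2; LiveBLAzer B/G substrate 2 h RT; fluorescence intensity.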
# [5] = qHTS assay for small molecule activators of the heat shock response signaling pathway (AID 743210; active = well fitted activation curve with a large enough effect in the signal ratio in the repeat runs, with a control signal flat, not every such curve was filed as active; inconclusive = weak or mixed curves; the % refers to the signal ratio; note: potency is the fitted concentration of half-maximal effect); settings: HeLa HSE-bla reporter, beta-lactamase ratio, 5 h; activation: at 62.6 µM (top of the series)
# Summary of the method: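 Heat shock element–beta-lactamase HeLa reporter cells; qHTS with compounds for 5 h at 37 C; detection by FRET substrate fluorescence after 2.5 h at RT.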
# [6] = qHTS assay to identify small molecule antagonists of the peroxisome proliferator-activated receptor delta (PPARd) signaling pathway - cell viability counter screen (AID 743213); settings: PPARd-bla HEK293H viability, CellTiter-Glo luminescence, 17 h; viability change, negative = cytotoxic: at 62 µM (top of the series) unless noted; note: nearly all actives have a fitted effect of over 50% in size; note: potency is the fitted concentration of half-maximal effect
# Summary of the method: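 Cytotoxicity counter screen: CellTiter-Glo luminescence read 30 min after addition, in the same wells as the reporter assay. There, PPARd UAS-bla HEK293H cells (3000/well) were treated 17 h at 37 C with compound and 300 nM L165041.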
# [7] = biological target: Bile acid receptor (Homo sapiens) (UniProt Q96RI1); assay: qHTS assay to identify small molecule antagonists of the farnesoid-X-receptor (FXR) signaling pathway (AID 743217; active = well fitted inhibition curve with a large enough effect in the signal ratio in the repeat runs, not every such curve was filed as active; inconclusive = weak or mixed curves, or effect the other way; inactive = no such curve, though single readings can be large or run the other way; the % refers to the signal ratio); settings: HEK293T FXR-UAS-bla, beta-lactamase ratio, CDCA-stimulated, 16 h; activity change, negative = inhibition: at 62.6 µM (top of the series) unless noted
# Summary of the method: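 FRET fluorescence after 2 h room-temperature LiveBLAzer loading gives the readout. Prior step: FXR-bla HEK 293T cells, seeded and incubated 5 h, received test compounds plus 50 uM final CDCA for 16 h at 37 °C.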
# [8] = qHTS assay to identify small molecule antagonists of the vitamin D receptor (VDR) signaling pathway - cell viability counter screen (AID 743225); settings: VDR-bla HEK293T viability, CellTiter-Glo luminescence, 16 h; viability change, negative = cytotoxic: at 61 µM (top of the series) unless noted; note: nearly all actives have a fitted effect of over 50% in size; note: potency is the fitted concentration of half-maximal effect
# Summary of the method: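 Parallel cytotoxicity test: VDR-UAS-bla HEK 293T, 3 nM (final) 1-alpha,25-dihydroxyvitamin D3 with test compound, 16 h, 37C. Endpoint is CellTiter-Glo luminescence in the same wells.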
# [9] = qHTS assay for small molecule agonists of the antioxidant response element (ARE) signaling pathway (AID 743202; active = well fitted activation curve with a large enough effect in the signal ratio in the repeat runs, not every such curve was filed as active; inconclusive = weak or mixed curves, or effect the other way; inactive = no such curve, though single readings can be large or run the other way; the % refers to the signal ratio); settings: HepG2 ARE-bla reporter, beta-lactamase FRET, 16 h; activation: at 73.3 µM (top of the series) unless noted
# Summary of the method: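 Following a 16 h, 37 C exposure of reporter HepG2 cells (ARE-driven beta-lactamase, 2,000 cells/well) to compounds, FRET substrate was applied for 2 h at room temperature and fluorescence intensity recorded.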
# [10] = biological target: Bile acid receptor (Homo sapiens) (UniProt Q96RI1); assay: qHTS assay to identify small molecule agonists of the farnesoid-X-receptor (FXR) signaling pathway (AID 743220; active = well fitted activation curve with a large enough effect in the signal ratio in the repeat runs, not every such curve was filed as active; inconclusive = weak or mixed curves, or effect the other way; the % refers to the signal ratio); settings: HEK293T FXR-UAS-bla, beta-lactamase FRET ratio, 16 h; activation: at 62.6 µM (top of the series) unless noted
# Summary of the method: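 FXR-UAS-bla HEK 293T cells carrying a UAS-driven beta-lactamase reporter were plated for 5 h at 37C/5% CO2, then exposed to DMSO-dissolved Tox21 10K compounds for 16 h at 37C. A LiveBLAzer B/G FRET substrate was loaded for 2 h at room temperature before fluorescence reading.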
# [11] = biological target: Peroxisome proliferator-activated receptor delta (Homo sapiens) (UniProt Q03181); assay: qHTS assay to identify small molecule antagonists of the peroxisome proliferator-activated receptor delta (PPARd) signaling pathway (AID 743215; active = well fitted inhibition curve with a large enough effect in the signal ratio in the repeat runs, not every such curve was filed as active; inconclusive = weak or mixed curves, or effect the other way; inactive = no such curve, though single readings can be large or run the other way; the % refers to the signal ratio;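 note: cells stimulated with agonist L165041 at 300 nM final during compound exposure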; note: potency is the fitted concentration of half-maximal effect); settings: HEK293H PPARd-UAS-bla, beta-lactamase FRET ratio, antagonist, 17 h; ratio activity, negative = inhibition: at 62 µM (top of the series) unless noted
# Summary of the method: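 Fluorescence from cleaved LiveBLAzer B/G FRET substrate (2 h, room temperature) reports PPARd-driven beta-lactamase in HEK293H UAS-bla cells. Cells had been treated 17 h at 37 C with compound plus 300 nM final L165041.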
# [12] = qHTS assay to identify small molecule agonists of the vitamin D receptor (VDR) signaling pathway - cell viability counter screen (AID 743224); note: nearly all actives have a fitted effect of over 50% in size; note: potency is the fitted concentration of half-maximal effect
# Summary of the method: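 In parallel with the bla FRET readout, cytotoxicity toward VDR-bla cells after 16 h compound exposure was assessed by CellTiter-Glo, with luminescence recorded after a 30 min room-temperature incubation.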
# [13] = biological target: Vitamin D3 receptor (Homo sapiens) (UniProt P11473); assay: qHTS assay to identify small molecule agonists of the vitamin D receptor (VDR) signaling pathway (AID 743222; calls by dose curve); settings: HEK293T VDR-UAS-bla, beta-lactamase FRET ratio, 16 h; activation: at 63.5 µM (top of the series) unless noted
# Summary of the method: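 Following 4 h attachment at 37C, VDR-bla cells (2,000 per well) received DMSO-dissolved compounds or controls. After 16 h incubation, LiveBLAzer B/G FRET substrate was added and fluorescence read 2 h later at room temperature.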
# [14] = qHTS assay for small molecule agonists of the antioxidant response element (ARE) signaling pathway - cell viability counter screen (AID 743203; calls by dose curve; note: nearly all actives have a fitted effect of over 55% in size)
# Summary of the method: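 Measured in the same wells as the beta-lactamase ARE reporter, this read-out is CellTiter-Glo luminescence from HepG2 ARE-bla cells given compounds for 16 hrs.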
# % is set by controls: 0 for no effect and ±100 for the full control effect; tags give direction and shape of the fitted curve or compound fluorescence and quenching.
# UniProt Q03181, sequence (Q03181 whole entry, looked up): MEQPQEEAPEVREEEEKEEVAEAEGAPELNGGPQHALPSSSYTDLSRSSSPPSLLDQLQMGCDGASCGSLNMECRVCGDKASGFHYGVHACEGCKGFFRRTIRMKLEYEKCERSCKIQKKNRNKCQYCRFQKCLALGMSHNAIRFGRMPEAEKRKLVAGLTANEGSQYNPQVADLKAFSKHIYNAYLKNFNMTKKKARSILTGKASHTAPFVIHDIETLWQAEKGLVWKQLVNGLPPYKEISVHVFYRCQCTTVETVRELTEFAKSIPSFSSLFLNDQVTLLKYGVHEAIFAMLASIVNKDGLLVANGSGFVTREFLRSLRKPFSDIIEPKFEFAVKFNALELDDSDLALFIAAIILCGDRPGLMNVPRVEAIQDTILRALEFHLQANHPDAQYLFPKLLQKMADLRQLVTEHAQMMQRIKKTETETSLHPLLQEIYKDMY
# UniProt Q96RI1, sequence (Q96RI1 whole entry, looked up): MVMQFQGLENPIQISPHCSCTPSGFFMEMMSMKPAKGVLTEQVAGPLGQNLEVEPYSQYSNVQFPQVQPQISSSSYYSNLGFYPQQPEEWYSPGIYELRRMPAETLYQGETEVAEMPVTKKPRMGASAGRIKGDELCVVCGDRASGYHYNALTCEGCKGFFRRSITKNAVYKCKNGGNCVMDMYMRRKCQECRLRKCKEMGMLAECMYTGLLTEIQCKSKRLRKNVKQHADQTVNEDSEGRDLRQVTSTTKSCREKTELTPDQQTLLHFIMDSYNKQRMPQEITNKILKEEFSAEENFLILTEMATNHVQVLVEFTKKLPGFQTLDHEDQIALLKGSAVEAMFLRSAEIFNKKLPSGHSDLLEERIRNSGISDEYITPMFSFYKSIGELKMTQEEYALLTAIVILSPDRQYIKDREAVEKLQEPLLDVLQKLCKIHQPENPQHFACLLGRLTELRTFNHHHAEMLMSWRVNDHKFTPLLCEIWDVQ
# UniProt P11473, sequence (P11473 whole entry, looked up): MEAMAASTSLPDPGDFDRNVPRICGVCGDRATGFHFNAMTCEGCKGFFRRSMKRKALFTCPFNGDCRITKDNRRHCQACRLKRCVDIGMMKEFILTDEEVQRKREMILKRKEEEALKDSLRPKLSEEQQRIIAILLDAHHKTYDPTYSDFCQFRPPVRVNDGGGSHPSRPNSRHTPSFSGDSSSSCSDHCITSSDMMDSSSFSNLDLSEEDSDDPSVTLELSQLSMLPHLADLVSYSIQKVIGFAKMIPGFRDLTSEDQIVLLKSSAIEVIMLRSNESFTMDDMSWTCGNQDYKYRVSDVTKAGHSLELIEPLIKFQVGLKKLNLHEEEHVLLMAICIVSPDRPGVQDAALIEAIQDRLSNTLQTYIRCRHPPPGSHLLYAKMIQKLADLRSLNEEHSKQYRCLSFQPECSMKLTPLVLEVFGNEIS
compound,measurement,setting,value
Cc1ccc2c(C)cccc2c1,Potency,[1],inactive
same,Potency,[2],inactive
same,Potency,[3],inactive
same,"activity change, negative = inhibition",[4],inconclusive: 18%
N#CC(CCc1ccc(Cl)cc1)(Cn1cncn1)c1ccccc1 (stereo not given),Potency,[5],inactive
same,Potency,[2],"inconclusive: 49 µM [cytotoxic, partial curve, poor fit]"
same,Potency,[6],"inconclusive: 4.36 µM [cytotoxic, full curve, poor fit]"
same,Potency,[7],inactive
same,Potency,[8],"inconclusive: 1.1 µM [cytotoxic, single point]"
Nc1ccc([N+](=O)[O-])cc1N,Potency,[5],"inconclusive: 437 nM and inconclusive: 21.9 µM [activator, partial curve]"
same,Potency,[3],"inconclusive: 1.38 µM [rising, full curve]"
O=c1[nH]c2cc(Cl)ccc2n1C1CCNCC1,activation,[9],inconclusive: 24.2%
same,Potency,[10],inactive
same,Potency,[4],inactive
same,Potency,[8],"inconclusive: 2.68 µM [cytotoxic, partial curve, poor fit]"
Nc1n[nH]c(N)n1,Potency,[1],inactive
same,Potency,[3],inactive
Cc1ccccc1O,Potency,[6],"inconclusive: 13.8 nM [cytotoxic, full curve, poor fit] and inactive"
same,"ratio activity, negative = inhibition",[11],inconclusive: 1.63%
CCN(C)N=O,activation,[9],inconclusive: 2.53%
same,Potency,[8],"inconclusive: 9.6 µM [cytotoxic, full curve, poor fit]"
CCCN(CCCl)c1c([N+](=O)[O-])cc(C(F)(F)F)cc1[N+](=O)[O-],Potency,[12],"inconclusive: 54.9 µM [cytotoxic, partial curve, poor fit]"
O=C(NCNC(=O)NC1C(=O)NC(=O)N1CO)NC1C(=O)NC(=O)N1CO (stereo not given),"ratio activity, negative = inhibition",[11],inconclusive: -2.21%
CC(C)(C)N(NC(=O)c1ccc(Cl)cc1)C(=O)c1ccccc1,Potency,[9],inactive
same,activation,[10],inconclusive: 0.113%
Nc1ccccc1C(=O)O,Potency,[6],"inconclusive: 0.492 µM [cytotoxic, single point]"
same,Potency,[7],inactive
same,Potency,[10],inactive
same,Potency,[12],inactive
Cl/C=C\Cl,Potency,[5],inconclusive: 48.8 µM [activator]
CN1C(=O)CN=C(c2ccccc2)c2cc(Cl)ccc21,Potency,[6],inactive
same,activation,[10],inconclusive: 9.38%
same,Potency,[4],"inconclusive: 7.88 µM [rising, full curve, poor fit]"
same,Potency,[12],inactive
same,Potency,[8],"inconclusive: 0.0952 µM [cytotoxic, single point]"
C[N+](C)(C)CCCl,activation,[13],inconclusive: 1.4% [at 81.1 µM]
COC(=O)c1c(C(F)F)nc(C(F)(F)F)c(C2=NCCS2)c1CC(C)C,Potency,[14],inactive
same,Potency,[5],inactive
same,Potency,[11],inactive
same,Potency,[3],"inconclusive: 38.9 µM [rising, partial curve, poor fit]"
N#CCCC#N,Potency,[10],inactive
same,Potency,[13],inactive
COC(=O)c1cncn1C(C)c1ccccc1 (stereo not given),activation,[13],inconclusive: 7.54%
same,Potency,[4],inactive
Cc1cc(C)nc(Nc2ccccc2)n1,Potency,[6],"inconclusive: 38.9 µM [rising, partial curve, poor fit]"
same,"viability change, negative = cytotoxic",[8],inconclusive: 30.4%
CCOc1cc(OP(=S)(OC)OC)nc(CC)n1,Potency,[2],"inconclusive: 0.549 µM [cytotoxic, full curve, poor fit]"
same,Potency,[11],inactive
same,Potency,[4],"inconclusive: 0.0039 µM [falling, full curve]"
O=[N+]([O-])c1ccccc1Cl,Potency,[6],"inconclusive: 0.98 µM [cytotoxic, full curve, poor fit]"
CC[C@@H](CO)NC(=O)[C@@H]1C=C2c3cccc4c3c(cn4C)C[C@H]2N(C)C1,Potency,[9],inactive
same,Potency,[4],inactive
C=CC(=C)C,Potency,[1],inactive
same,Potency,[3],inactive
[O]=[Cr][O][Cr]=[O],"activity change, negative = inhibition",[4],inconclusive: 21.9% [at 78.8 µM]
Cc1ccc2c(c1)C1CN(C)CCC1N2 (stereo not given),Potency,[2],inactive
same,Potency,[12],"inconclusive: 11.6 µM [rising, partial curve, poor fit]"
CCOc1nc(F)cc2nc(S(=O)(=O)Nc3c(Cl)cccc3Cl)nn12,Potency,[11],"inconclusive: 2.75 µM [rising, full curve, poor fit]"
same,activation,[13],inconclusive: 3.69%
same,Potency,[8],inactive
